Results are given in words; binding and its absence hold for the method and conditions named. Some entries that bind do so weakly or less than the wild type. For some assays here: Where a sequence is shown, tags or fusion partners need not be part of it.
Legend:
[1] = target: T18-RNase E^940-1057 (P. aeruginosa) (UniProt Q9HZM8); assay: two-hybrid; adenylate-cyclase-based bacterial two-hybrid in E. coli BTH101 (T18 and T25 fusions); MacConkey agar with maltose and IPTG, 30°C then room temperature; β-galactosidase activity with ONPG
[2] = target: T18-RNase E^1-529 (P. aeruginosa) (UniProt Q9HZM8); assay: as above
[3] = target: T18-RNase E^1-1025 (P. aeruginosa) (UniProt Q9HZM8); assay: as above
[4] = target: T18-RNase E^762-793 (P. aeruginosa) (UniProt Q9HZM8); assay: as above
[5] = target: T18-RNase E^1-733 (P. aeruginosa) (UniProt Q9HZM8); assay: as above
[6] = target: T18-RNase E^1-793 (P. aeruginosa) (UniProt Q9HZM8); assay: as above
[7] = target: T18-RNase E^733-793 (P. aeruginosa) (UniProt Q9HZM8); assay: as above
[8] = target: T18-RNase E^733-761 (P. aeruginosa) (UniProt Q9HZM8); assay: as above
[9] = target: Flag-RNase E^1-588 (P. aeruginosa) (UniProt Q9HZM8); assay: pull-down; purified Flag-tagged RNase E proteins (20-25 µg) immobilised on anti-Flag M2 magnetic beads, 5 µg of PNPase or RhlB in 100 µL buffer H (50 mM Tris-HCl pH 8.0, 150 mM NaCl, 0.01% Triton X-100), 1 hour at 4 °C; SDS-PAGE, Coomassie Blue; both purified
[10] = target: Flag-RNase E^1-529 (P. aeruginosa) (UniProt Q9HZM8); assay: as above
[11] = target: Flag-RNase E^1-588 (P. aeruginosa) (UniProt Q9HZM8); assay: pull-down; purified Flag-tagged RNase E^1-1057 or RNase E^1-588 on anti-Flag magnetic beads (50 µL), purified ArcB, in presence or absence of 100 ng/µl of total P. aeruginosa RNA; elution with 3X FLAG Peptide; both purified
[12] = target: Flag-RNase E^1-1057 (P. aeruginosa) (UniProt Q9HZM8); assay: as above

Sequences of proteins named here, by UniProt entry; tags and fusion partners are left off. A change or cut given only in a name is not applied to a line headed by its entry. Residues count along the entry.
UniProt Q9HZM8: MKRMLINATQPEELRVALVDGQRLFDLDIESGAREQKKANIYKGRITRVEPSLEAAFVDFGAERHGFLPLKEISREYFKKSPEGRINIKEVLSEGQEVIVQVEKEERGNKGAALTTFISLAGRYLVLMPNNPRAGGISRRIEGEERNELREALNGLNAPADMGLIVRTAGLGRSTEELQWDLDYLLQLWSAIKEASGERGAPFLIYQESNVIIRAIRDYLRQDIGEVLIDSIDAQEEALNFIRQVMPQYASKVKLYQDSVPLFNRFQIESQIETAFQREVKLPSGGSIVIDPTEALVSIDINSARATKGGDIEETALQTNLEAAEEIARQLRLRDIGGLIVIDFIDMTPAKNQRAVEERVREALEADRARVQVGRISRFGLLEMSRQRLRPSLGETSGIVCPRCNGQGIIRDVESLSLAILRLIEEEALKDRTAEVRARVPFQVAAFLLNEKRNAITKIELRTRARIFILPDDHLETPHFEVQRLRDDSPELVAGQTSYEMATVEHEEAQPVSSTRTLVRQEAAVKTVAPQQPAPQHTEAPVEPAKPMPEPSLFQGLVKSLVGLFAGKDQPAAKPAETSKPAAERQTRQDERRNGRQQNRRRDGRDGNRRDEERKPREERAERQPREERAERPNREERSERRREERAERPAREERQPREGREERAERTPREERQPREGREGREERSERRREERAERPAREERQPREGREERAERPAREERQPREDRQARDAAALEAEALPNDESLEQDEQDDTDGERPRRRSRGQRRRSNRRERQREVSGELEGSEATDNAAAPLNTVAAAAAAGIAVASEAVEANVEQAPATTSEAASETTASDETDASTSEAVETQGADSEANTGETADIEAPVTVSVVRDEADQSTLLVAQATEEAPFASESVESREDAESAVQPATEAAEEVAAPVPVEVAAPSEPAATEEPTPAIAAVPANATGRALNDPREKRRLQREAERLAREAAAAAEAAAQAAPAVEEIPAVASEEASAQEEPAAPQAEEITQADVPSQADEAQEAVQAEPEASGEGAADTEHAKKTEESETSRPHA
T18-RNase E^1-1025: residues 1-1025 of Q9HZM8
T18-RNase E^1-793: residues 1-793 of Q9HZM8
T18-RNase E^1-733: residues 1-733 of Q9HZM8
Flag-RNase E^1-588: residues 1-588 of Q9HZM8
Flag-RNase E^1-529: residues 1-529 of Q9HZM8
T18-RNase E^733-793: residues 733-793 of Q9HZM8
T18-RNase E^733-761: residues 733-761 of Q9HZM8
T18-RNase E^762-793: residues 762-793 of Q9HZM8
T18-RNase E^940-1057: residues 940-1057 of Q9HZM8

B1: T25-PNPase (enzyme, P. aeruginosa, UniProt Q9HV59 1-701, looked up)
chain: MNPVTKQFQFGQSTVTLETGRIARQATGAVLVTMDDVSVLVTVVGAKSPAEGRDFFPLSVHYQEKTYAAGRIPGGFFKREGRPSEKETLTSRLIDRPIRPLFPEGFMNEVQVVCTVVSTNKKSDPDIAAMIGTSAALAISGIPFAGPIGAARVGFHPEIGYILNPTYEQLQSSSLDMVVAGTEDAVLMVESEADELTEDQMLGAVLFAHDEFQAVIRAVKELAAEAGKPAWDWKAPAENTVLVNAIKAELGEAISQAYTITIKQDRYNRLGELRDQAVALFAGEEEGKFPASEVKDVFGLLEYRTVRENIVNGKPRIDGRDTRTVRPLRIEVGVLGKTHGSALFTRGETQALVVATLGTARDAQLLDTLEGERKDAFMLHYNFPPFSVGECGRMGSPGRREIGHGRLARRGVAAMLPTQDEFPYTIRVVSEITESNGSSSMASVCGASLALMDAGVPVKAPVAGIAMGLVKEGEKFAVLTDILGDEDHLGDMDFKVAGTDKGVTALQMDIKINGITEEIMEIALGQALEARLNILGQMNQVIAKPRAELSENAPTMLQMKIDSDKIRDVIGKGGATIRGICEETKASIDIEDDGSVKIYGETKEAAEAAKLRVLAITAEAEIGKIYVGKVERIVDFGAFVNILPGKDGLVHISQISDKRIDKVTDVLQEGQEVKVLVLDVDNRGRIKLSIKDVAAAEASGV
notes: Polyribonucleotide phosphorylase (PNPase), P. aeruginosa, pnp; source: bacterial two-hybrid fusion (pKT25), E. coli BTH101
For B1, the binding [1] was “binds”, the binding [2] was “no binding” and the binding [3] was “binds”.

B2: T25-RhlB (enzyme, P. aeruginosa, UniProt Q9HXE5 1-397, looked up)
chain: MVEPQEGKTRFHDFNLAPSLMHAIHDLGFPYCTPIQAQVLGFTLRGQDAIGRAQTGTGKTAAFLISIITQLLQTPPPKERYMGEPRALIIAPTRELVVQIAKDAAALTKYTGLNVMTFVGGMDFDKQLKQLEARFCDILVATPGRLLDFNQRGEVHLDMVEVMVLDEADRMLDMGFIPQVRQIIRQTPHKGERQTLLFSATFTDDVMNLAKQWTVDPAIVEIEPENVASDTVEQHVYAVAGSDKYKLLYNLVAQNNWERVMVFANRKDEVRRIEERLTKDGISAAQMSGDVPQHKRIRTLEGFREGKIRVLVATDVAGRGIHIDGISHVINFTLPEDPDDYVHRIGRTGRAGASGTSISFAGEDDAFALPPIEELLGRKITCEMPPAELLKPVPRKH
notes: RNA helicase RhlB, P. aeruginosa; source: bacterial two-hybrid fusion (pKT25), E. coli BTH101
In the case of B2, the binding [4] is reported as “no binding”, the binding [5] is reported as “no binding” and the binding [6] is reported as “binds”. For the same binder, the binding [7] was “binds” and the binding [8] was “no binding”.

B3: T25-ArcB (enzyme, UniProt P08308 1-336)
chain: MAFNMHNRNLLSLMHHSTRELRYLLDLSRDLKRAKYTGTEQQHLKRKNIALIFEKTSTRTRCAFEVAAYDQGANVTYIDPNSSQIGHKESMKDTARVLGRMYDAIEYRGFKQEIVEELAKFAGVPVFNGLTDEYHPTQMLADVLTMREHSDKPLHDISYAYLGDARNNMGNSLLLIGAKLGMDVRIAAPKALWPHDEFVAQCKKFAEESGAKLTLTEDPKEAVKGVDFVHTDVWVSMGEPVEAWGERIKELLPYQVNMEIMKATGNPRAKFMHCLPAFHNSETKVGKQIAEQYPNLANGIEVTEDVFESPYNIAFEQAENRMHTIKAILVSTLADI
In the case of B3, the binding [2] is reported as “no binding”.

B4: His10Smt3-tagged PNPase (enzyme, UniProt Q9HV59 1-701)
chain: B1 chain
For B4, the binding [9] was “no binding (tested: 5 µg of PNPase in 100 µL)” and the binding [10] was “no binding (tested: 5 µg of PNPase in 100 µL)”.

B5: His10Smt3-tagged RhlB (enzyme, UniProt Q9HXE5 1-397)
chain: B2 chain
In the case of B5, the binding [10] is reported as “no binding (tested: 5 µg of RhlB in 100 µL)”.

B6: His10Smt3-tagged ArcB (enzyme, UniProt P08308 1-336)
chain: B3 chain
With B6 the binding [11] was “no binding” and the binding [12] was “no binding”.
